Laboratory results published in paper PMC4336329 (PLoS ONE, 2015).
The campaign covered roughly 310,000 compounds. About 14,000 (4.5%) showed an effect of 50% or more. The effect is printed as a negative number. The list shows a part of the results.

molecular target: human ether-à-go-go-related gene (hERG) potassium channel (human, UniProt Q12809); assay: primary screen, population patch clamp on CHO cells stably expressing hERG
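Also: peak tail current of the secondary pulse compared with the same well before compound.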

human ether-à-go-go-related gene (hERG) potassium channel, sequence (Q12809 whole entry, looked up): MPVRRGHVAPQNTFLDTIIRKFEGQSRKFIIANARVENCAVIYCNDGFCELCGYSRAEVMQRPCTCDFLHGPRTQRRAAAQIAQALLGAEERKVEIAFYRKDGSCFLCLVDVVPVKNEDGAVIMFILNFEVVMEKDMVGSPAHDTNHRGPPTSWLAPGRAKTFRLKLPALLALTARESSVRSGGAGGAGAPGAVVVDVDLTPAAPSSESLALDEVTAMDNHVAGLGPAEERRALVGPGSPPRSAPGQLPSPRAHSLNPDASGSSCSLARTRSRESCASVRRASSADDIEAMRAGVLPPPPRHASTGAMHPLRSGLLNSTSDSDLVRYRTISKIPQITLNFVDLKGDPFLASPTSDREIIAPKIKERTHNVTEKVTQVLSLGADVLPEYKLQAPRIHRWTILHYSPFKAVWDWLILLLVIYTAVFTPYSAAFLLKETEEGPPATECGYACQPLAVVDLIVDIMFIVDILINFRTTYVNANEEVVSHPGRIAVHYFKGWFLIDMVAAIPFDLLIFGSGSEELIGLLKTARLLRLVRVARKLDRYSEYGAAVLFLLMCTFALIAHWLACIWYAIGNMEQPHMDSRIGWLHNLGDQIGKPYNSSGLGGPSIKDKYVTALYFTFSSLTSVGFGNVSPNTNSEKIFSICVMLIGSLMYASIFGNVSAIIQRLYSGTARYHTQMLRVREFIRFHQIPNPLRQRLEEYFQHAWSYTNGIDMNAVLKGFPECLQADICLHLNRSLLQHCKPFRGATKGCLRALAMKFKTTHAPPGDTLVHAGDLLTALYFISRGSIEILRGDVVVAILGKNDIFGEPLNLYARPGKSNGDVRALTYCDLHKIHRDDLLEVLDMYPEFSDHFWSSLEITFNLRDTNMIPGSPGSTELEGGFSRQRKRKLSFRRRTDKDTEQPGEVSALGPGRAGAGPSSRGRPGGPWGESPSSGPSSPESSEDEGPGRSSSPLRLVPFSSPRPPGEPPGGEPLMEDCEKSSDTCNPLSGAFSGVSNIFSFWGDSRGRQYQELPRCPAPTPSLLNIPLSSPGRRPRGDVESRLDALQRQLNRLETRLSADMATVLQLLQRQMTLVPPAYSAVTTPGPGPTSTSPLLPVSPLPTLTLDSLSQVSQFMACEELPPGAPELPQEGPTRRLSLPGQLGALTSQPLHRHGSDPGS

Row | SMILES | hERG current change (%, negative = inhibition) at 10uM
1 | CN1CCN(C(=O)COc2ccc3ccccc3c2Br)CC1 | -10.4%
2 | COc1ccc(CSc2nnnn2-c2ccc(O)cc2)cc1F | -17.7%
3 | Cc1cccc(OCC(=O)NC(=S)Nc2ccccc2N2CCOCC2)c1 | 18.8%
4 | Cc1ccc(N=C(NO)c2nonc2N)c(C)c1 | 12.1%
5 | CN1CCN(NC(=O)Nc2cc(Cl)cc(Cl)c2)CC1 | -9.67%
6 | CCCn1cnc2cc(NC(=O)c3ccco3)ccc21 | -3.81%
7 | CCN1C(=O)C(=O)N(CC(=O)N(C)CC(=O)Nc2ccccc2Cl)C1=O | 4.13%
8 | Cc1[nH]c(=S)c(C#N)c(-c2ccccc2)c1C(=O)Nc1ccccc1 | 19.1%
9 | CCN(c1ccccc1)S(=O)(=O)c1ccc(OC)c(NC(=O)Cc2ccc(F)cc2)c1 | -25.1%
10 | CCOC(=O)C1C(=O)CC(C)(O)C(C(=O)OCC)C1c1cccs1 (stereo not drawn) | 24%
11 | CCCCC1=CC2=CC(=O)C(C)(OC(=O)c3cnc4ccccc4n3)C(=O)C2=CO1 (stereo not drawn) | 27.1%
12 | CC(C)c1ccccc1-n1c(SCC(=O)N2CCc3ccccc3C2)nc2ccccc2c1=O | 6.46%
13 | CCc1[nH]c(=O)[nH]c1C(C)S(=O)(=O)c1ccc(C)cc1 (stereo not drawn) | 16.9%
14 | C=CCSc1nc(-c2ccccc2)c2cc(Cl)ccc2n1 | 1.51%
15 | O=C(/C=C\c1ccc2c(c1)OCO2)NC1(C(=O)Nc2ccc3c(c2)OCO3)CCCCC1 | 0.49%
16 | Cc1ccc(NC(=O)c2ccc3c(=O)n4c(nc3c2)CCCCC4)nc1 | -60.4%
17 | CC1(CC(=O)N/N=C/c2cc(Br)c(O)cc2O)OCCO1 | 21.4%
18 | CCOc1ccc(S(=O)(=O)c2cn(C)c3cc(OC)c(OC)cc3c2=O)cc1 | 1.86%
19 | CCOC(=O)N1CCN(C(=O)c2cc(-n3cnnc3)ccc2Cl)CC1 | 0.00508%

Row | SMILES | hERG current change (%, negative = inhibition) at 10uM
20 | CCOC(=O)c1c(C)nc2sc3c(=O)n(-c4ccc(C(C)=O)cc4)cnc3c2c1-c1ccc(OC)cc1 | 13.3%
21 | CN(C)/C=N/C(=S)Nc1ccc(Cl)cc1 | 5.24%
22 | CC1=C(Sc2nc3ccccc3[nH]2)C(=O)NC(C)(C)C1 | 1.71%
23 | CCCc1cc(CNC(=O)C2CCC(=O)N(CCc3cccc(F)c3)C2)on1 (stereo not drawn) | -49.6%
24 | O=C(Cc1cccs1)N/N=C/C=C\c1ccccc1[N+](=O)[O-] | 13.3%
25 | Cc1ccc(C(=O)OCC(=O)c2cc(C)n(CC3CCCO3)c2C)cc1 (stereo not drawn) | -15%
26 | O=C(NC1CCCCC1)C1CC(=O)N(c2ccccc2)C1 (stereo not drawn) | 15.6%
27 | O=C(/C=C/c1ccc(S(=O)(=O)N2CCOCC2)cc1)NC(=S)Nc1ccc(Cl)cc1Cl | 8.17%
28 | CC(=O)Nc1ccc(NC(=O)Nc2ccccc2)cc1 | 10.5%
29 | COc1ccc(Cl)cc1-c1nc(SCC(=O)NC(C)C(C)C)n[nH]1 (stereo not drawn) | 5.68%
30 | CCOC(=O)CSc1nc2cc(C)ccc2cc1C#N | 1.87%
31 | C#Cc1ccc([C@@H]2C=C(C(=O)N3CCN(Cc4ccccc4)CC3)O[C@H](OCCCCO)C2)cc1 | -56%
32 | COc1ccccc1C(=O)C1CCCN(C(=O)C2CCCC2)C1 (stereo not drawn) | -6.06%
33 | COc1ccc(/C=N/Nc2nc(Nc3ccccc3)nc(N3CCCCC3)n2)cc1OC | 12%
34 | C(=N\N1CCN(C(c2ccccc2)c2ccccc2)CC1)/c1ccc2c(c1)OCO2 | 40.8%
35 | Cc1ccccc1NS(=O)(=O)c1ccc2[nH]cc(C(=O)NCCCN3CCOCC3)c(=O)c2c1 | 14.5%
36 | Cc1n[nH]c(=O)nc1N/N=C/c1cccs1 | 9.67%
37 | Cc1cc(/C(N)=N/OC(=O)c2cccc(Cl)c2)no1 | 9.63%
38 | Cc1cc(C)c(S(=O)(=O)NCC(c2ccc3c(c2)OCO3)N2CCOCC2)c(C)c1 (stereo not drawn) | -18.1%

Row | SMILES | hERG current change (%, negative = inhibition) at 10uM
39 | CN(C)CCOC(=O)C(c1ccccc1)C1(O)CCCC1.Cl (stereo not drawn) | 21.8%
40 | CCC(=O)Nc1ccc(C(=O)Nc2cccnc2)cc1 | -0.52%
41 | CC(=O)NCCn1c(SCC(=O)NC2CCCCC2)nc2ccccc2c1=O | -8.51%
42 | CC1CCN(C(=O)CNC(=O)c2cccc(OC(F)F)c2)CC1 | 6.21%
43 | O=C(CCCN1C(=O)c2ccccc2C1=O)Nc1ccccc1 | -10.5%
44 | C#Cc1ccc([C@H]2C=C(C(=O)O)O[C@@H](OCc3ccc(CO)cc3)C2)cc1 | 9.26%
45 | CCOC(=O)C1=C(C)OC(N)=C(C#N)C1c1ccc(OC)c(C)c1OC (stereo not drawn) | -5.65%
46 | CCC(=O)N1N=C(c2ccc(C)cc2)CC1c1ccco1 (stereo not drawn) | -8.61%
47 | CCC(C)NC(=O)c1ccc(C(=O)c2ccccc2)cc1 (stereo not drawn) | 12.7%
48 | O=C(NCCc1ccccc1)C(=Cc1ccc(C(=O)O)cc1)C(=O)NCCc1ccccc1 | -1.94%
49 | Cc1cccc2cc(CN(CCN3CCCC3)C(=O)NC3CCCCC3)c(=O)[nH]c12 | -57%
50 | COc1cccc2[nH]c3c(N4CCN(Cc5ccc6c(c5)OCO6)CC4)ncnc3c12 | -17.3%
51 | CCOc1ccc(NC(=O)Nc2ccccc2C(N)=O)cc1 | -2.51%
52 | COc1ccc(C(=O)N2CCN(c3nc4cc(C)ccc4cc3C#N)CC2)c(OC)c1 | -22.8%
53 | O=C1C=C(NCc2ccccc2)CCC1 | 12.1%
54 | CCCCNC(=O)c1onc(CSc2cccc(F)c2)c1C(=O)O | 10.9%
55 | O=C1CSC(c2cccc([N+](=O)[O-])c2)N1c1ccc(O)cc1 (stereo not drawn) | 0.0802%
56 | COCc1[nH][nH]c(=O)c1C=Nc1ccc(Cl)cc1 | 3.16%
57 | Cc1cc(Nc2ccccc2Cl)n2nnnc2n1 | 0.169%
